# Whole data set: some 33,000 sequences, median “E-score (-0.5 to 0.5)” near -0.054, cut for the highest 2% near 0.39. Some of the results follow.
# Target: Ylr278c (UniProt Q05854)
# Experiment: PBM E-score (8-mer binding enrichment) (E-score (-0.5 to 0.5)); higher = stronger / more preferred TF binding; most listed sequences are background and not binding sites
# Conditions: protein concentration: 200 nM; construct: GST-DNA-binding domain
# How it was run: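 Each ungapped eight-base word and its reverse complement, pooled, received an E-score from the Universal PBM Analysis Suite. Underlying scans, normalised with masliner, recorded fluorescent anti-GST bound to GST-tagged yeast transcription factors. These were applied at about 100-200 nM to universal all-10-mer Agilent arrays double-stranded by primer extension.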
row,Sequence,PBM E-score
1,GAACCGCA,0.15
2,AACCTAGA,-0.0646
3,ATGACTGA,-0.0622
4,CTAGTGGA,-0.22
5,AATGCTAC,0.0767
6,CGCATTCA,0.0617
7,GTCTCTTA,0.0191
8,CCGCAACA,0.27
9,CGCATCAG,0.225
10,CCGTTCTA,0.162
11,CGCGCCAA,0.187
12,TGAAGGAA,-0.133
13,ACGGGTCG,0.0181
14,ATATCACC,0.0507
15,ATTTAATG,-0.00533
16,ATGTAGCC,-0.0937
17,ACATTGGA,-0.127
18,ACGAAGCT,-0.187
19,AGAGCCGC,0.236
20,ATCAACCA,-0.177
21,CCGAGCCG,0.379
22,CCGGTTAC,0.315
23,ATGATCAA,-0.255
24,GGTCCTAC,-0.207
25,GCTGATCA,-0.00497

row,Sequence,PBM E-score
1,TATTGAAA,0.0175
2,ATTCTTGA,-0.0207
3,ATTGCCCG,0.177
4,AGCGCTGA,0.18
5,CATGGCAG,-0.0043
6,AGTTAAAC,-0.135
7,AACCATGC,0.0626
8,ACGGCCAG,0.0757
9,AAAGTCAA,-0.106
10,GGCCCAAC,-0.1
11,GCTCTGAC,-0.29
12,ACCACATG,-0.215
13,CCGGAACA,0.442
14,TAAATGAA,-0.141
15,ACTTAGGC,-0.00672
16,ACCCCGTC,0.253
17,CTGCCAAC,-0.174
18,GATCACAC,-0.0572
19,AGGGTTTC,-0.012
20,GCTGTCAC,-0.182
21,CGGTTCCA,0.13
22,CACTCTAG,-0.163
23,CCCGGAGG,0.439
24,AGAACGGG,0.0721
25,CTGAAAAA,-0.0884

row,Sequence,PBM E-score
1,CCTTATTC,-0.234
2,ACAACGTA,-0.21
3,ACACCGCC,0.199
4,AAATCAAT,-0.0293
5,CGGCCCCG,0.297
6,AGGGTTAC,-0.236
7,CTATCTAA,-0.0478
8,GCAGGCAA,-0.0214
9,AGTCCAGG,-0.138
10,CAACCGCG,0.208
11,AACAAGAT,0.0527
12,CGATGCAC,-0.0843
13,ACAGGTAC,-0.123
14,TATCAGGA,-0.131
15,CAAACATC,0.127
16,AAATAGTT,0.0407
17,AACGCGCC,0.0465
18,GCGGACGC,0.177
19,CCCATTGC,-0.0499
20,CTCGACTC,-0.0517
21,GAAATTCC,0.348
22,ATGGTAAG,-0.203
23,ACCTACAA,-0.178
24,CACCCTAA,-0.147
25,GCGCTCAA,0.0181

row,Sequence,PBM E-score
1,GGATGGAC,0.0145
2,CATTCTGA,-0.0107
3,ACAGTTCA,-0.215
4,ATCACTGC,-0.0314
5,CGCCTCCA,0.0143
6,GAACGATC,0.041
7,TCACTGGA,-0.0356
8,CTACCCGC,0.0419
9,CCTCCCGA,0.0701
10,GTCTGTAA,0.125
11,CACGGCGG,0.199
12,CTATACGA,-0.142
13,ACCTATCA,0.00429
14,ACCTAGTA,-0.244
15,AAGATAAG,-0.167
16,TTCTGCAA,-0.0696
17,ATATGCTC,0.0559
18,ATACGCAT,-0.00802
19,CCTGGTCA,-0.339
20,AGATCGTG,-0.188
21,AAGGCCCA,-0.183
22,CACGCATG,-0.16
23,AATCATCT,0.0277
24,CCCCCAGC,-0.226
25,CATACCGA,0.056

row,Sequence,PBM E-score
1,AGACCTGC,-0.33
2,AACCGAAA,0.0213
3,AAGACTTA,-0.366
4,AGTCTGCC,-0.222
5,GGTCCCAA,-0.163
6,CGACTGGA,-0.012
7,AAGCAGGA,0.0618
8,CCATATGG,-0.116
9,GGCCTTAA,-0.0388
10,TCTGCCAA,-0.313
11,GGGCTGTA,-0.0874
12,TACCGGTA,0.246
13,AGACGATA,-0.0594
14,AATGCGGA,0.396
15,CTGAGTCA,-0.19
16,AACCAAGT,-0.134
17,ATGTGACC,-0.00885
18,ATGAGAGA,-0.154
19,AGCTAGAT,-0.213
20,ATAGGAGA,-0.226
21,GGCCGTAA,0.209
22,CCCCTTGA,-0.0701
23,TAGGTTCA,-0.0318
24,ATCCACAC,-0.0734
25,TACTTCCA,-0.0154

row,Sequence,PBM E-score
1,AAGTGTCG,-0.00145
2,CGTCGGTC,0.215
3,ACTAATCG,0.267
4,CGCGCTAG,0.0561
5,GAGCACGA,0.0527
6,GATGATCA,-0.155
7,GCCATACA,-0.187
8,ACTAGGGG,-0.17
9,TGCCTACA,-0.111
10,GTGGTTAA,-0.13
11,GCGGGGAC,0.22
12,CGTCGTGC,0.0368
13,AGGTATAA,-0.0496
14,AATGTAAA,0.00046
15,GTTAGCTA,-0.125
16,CCGGAATA,0.434
17,GTTAAGCA,0.0147
18,GCAGACAC,-0.0251
19,ATCAAATG,0.058
20,AGAATGCA,0.0461
21,CGGCATGC,0.279
22,CGAAAGCA,0.0148
23,GACTTCTC,0.0304
24,CATTGTCA,-0.116
25,ATAGGGTC,-0.0639

row,Sequence,PBM E-score
1,AGGTAGAC,-0.0819
2,CCAACCCC,0.114
3,ACCATTAC,-0.00509
4,CAACGTGG,-0.187
5,TGCACCCA,-0.0149
6,ATTCACTA,0.00726
7,GAGCGGAC,0.321
8,TATATCGA,0.0532
9,CTCGCGTA,-0.0309
10,GATGTGGC,-0.106
11,GTGTACCA,-0.298
12,CCAGGACC,-0.0892
13,CGTAAGAC,-0.196
14,GCGTCCCA,-0.0879
15,AAAGCCCT,-0.219
16,TAGTATAA,0.0315
17,ATCTGGGG,-0.196
18,TGAAACAA,-0.0449
19,TACGCAGA,-0.0137
20,AACCTCCG,0.466
21,CGAGGCCC,0.129
22,GGACAACC,0.087
23,ATCCATGC,-0.131
24,CCAACGTA,-0.311
25,CCCTGAGA,-0.258

row,Sequence,PBM E-score
1,ACTGTGCC,-0.202
2,AAGATCCG,0.333
3,GGTTTAGA,-0.0635
4,CTAACGAC,-0.243
5,ACGTGTAT,-0.0891
6,AACACTAG,-0.14
7,ATACGGCA,0.112
8,CCGCGCTA,0.153
9,ATCCTCTG,-0.134
10,AATTGCAT,-0.0174
11,CTAGATAA,-0.202
12,CGAAGTAA,0.0385
13,GCGATACA,-0.0735
14,ATGGCCCC,0.00489
15,ACATCTGA,-0.165
16,ATATCAAT,-0.0864
17,CAGAATTA,0.0511
18,CAGTGGCA,-0.225
19,AGGGATGA,-0.111
20,ACAAATGT,0.0363
21,CAGCAAGG,-0.222
22,GAGGAAGA,-0.0737
23,GTTCCATA,-0.0162
24,ATACTAGA,-0.0205
25,TTCCAAAA,-0.186

row,Sequence,PBM E-score
1,CGCGGGTA,0.154
2,AACGACTG,-0.263
3,AGCTGCAT,-0.232
4,CACCTACG,-0.0133
5,AAATTTCC,0.169
6,AGTAGGAT,-0.0817
7,ATGAGTTA,-0.204
8,ATTGTGCC,-0.105
9,CAAAGTCG,-0.186
10,AGTGGTAG,-0.279
11,GCGCGAAC,0.132
12,ATGGTAGG,-0.127
13,CAGTACGA,-0.107
14,CTAGATTA,-0.172
15,ACCGAAAC,0.185
16,TCCAACGA,-0.305
17,CTTAGGGC,-0.0271
18,AACGGGAT,0.304
19,CTATAAAC,0.0436

# Source: the supplement of paper PMC3334620
